Measurements: PubChem BioAssay (Tox21)
Inconclusive results, whose numbers are uncertain, are shown with a selection of clear calls. For some assays here: Potencies beside an inconclusive call are fits to weak or partial responses and may not hold up. The source made the active and inactive calls. Calls follow the shape of the dose curve; as a rule, active = well fitted curve in the direction sought with a large enough effect in the repeat runs; inconclusive = weak or mixed curves; inactive = no such curve, though single readings can be large; an effect the other way counts as inactive or inconclusive.

Experiments:
[1] = Human pregnane X receptor (PXR) small molecule agonists, qHTS cell viability counter screen (AID 1346977); also: nearly all actives have a fitted effect of over 50% in size; also: potency is read from the fitted curve at half-maximal effect
Outline: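 In each well, the PXR reporter HepG2 line was checked for viability: CellTiter-Fluor reagent added 23hr post-dosing, fluorescence read after 1hr incubation at 37C.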

[2] = Caspase-3/7 induction in HepG2 cells by small molecules, qHTS cell viability counter screen (AID 1346981); also: nearly all actives have a fitted effect of over 30% in size; also: potency is read from the fitted curve at half-maximal effect
Outline: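 In this quantitative HTS counter screen, compounds delivered in DMSO were left on unmodified HepG2 cells for 16 hr at 37 C. Viability was then determined fluorometrically with CellTiter-Fluor, in parallel with caspase-3/7 induction in the same wells.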

[3] = target: Cytochrome P450 1A2 (Homo sapiens) (UniProt P05177); experiment: Cytochrome P450 Family 1 Subfamily A Member 2 (CYP1A2) small molecule antagonists: luciferase reporter qHTS assay (AID 1671199); also: nearly all actives have a fitted effect of over 50% in size; also: potency is read from the fitted curve at half-maximal effect
UniProt P05177, sequence (P05177 whole entry, looked up): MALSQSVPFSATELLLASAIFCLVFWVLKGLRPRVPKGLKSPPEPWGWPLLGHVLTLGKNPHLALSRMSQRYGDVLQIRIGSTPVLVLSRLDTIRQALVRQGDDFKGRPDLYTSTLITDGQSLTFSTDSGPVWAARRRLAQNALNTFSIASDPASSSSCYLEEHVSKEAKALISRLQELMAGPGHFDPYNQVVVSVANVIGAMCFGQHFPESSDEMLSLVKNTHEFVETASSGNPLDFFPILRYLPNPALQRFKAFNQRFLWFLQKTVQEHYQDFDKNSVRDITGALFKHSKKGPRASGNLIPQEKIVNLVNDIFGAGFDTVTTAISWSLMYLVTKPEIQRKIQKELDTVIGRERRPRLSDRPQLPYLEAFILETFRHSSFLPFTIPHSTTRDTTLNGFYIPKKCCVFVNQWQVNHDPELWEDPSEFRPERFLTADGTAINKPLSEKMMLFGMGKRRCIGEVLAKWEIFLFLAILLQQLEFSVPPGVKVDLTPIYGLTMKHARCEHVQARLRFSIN
Outline: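 Steps: enzyme-substrate mix dispensed; test compounds and furafylline control pinned in; 10 min room temperature; NADPH regeneration solution added, 1 h; reaction stopped with luciferin detection reagent; luminescence read after 20 min.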

[4] = target: Cytochrome P450 2C9 (Homo sapiens) (UniProt P11712); experiment: Cytochrome P450 Family 2 Subfamily C Member 9 (CYP2C9) small molecule antagonists: luciferase reporter qHTS assay (AID 1671198); also: potency is read from the fitted curve at half-maximal effect; nearly all actives have a fitted effect of over 50% in size
UniProt P11712, sequence (P11712 whole entry, looked up): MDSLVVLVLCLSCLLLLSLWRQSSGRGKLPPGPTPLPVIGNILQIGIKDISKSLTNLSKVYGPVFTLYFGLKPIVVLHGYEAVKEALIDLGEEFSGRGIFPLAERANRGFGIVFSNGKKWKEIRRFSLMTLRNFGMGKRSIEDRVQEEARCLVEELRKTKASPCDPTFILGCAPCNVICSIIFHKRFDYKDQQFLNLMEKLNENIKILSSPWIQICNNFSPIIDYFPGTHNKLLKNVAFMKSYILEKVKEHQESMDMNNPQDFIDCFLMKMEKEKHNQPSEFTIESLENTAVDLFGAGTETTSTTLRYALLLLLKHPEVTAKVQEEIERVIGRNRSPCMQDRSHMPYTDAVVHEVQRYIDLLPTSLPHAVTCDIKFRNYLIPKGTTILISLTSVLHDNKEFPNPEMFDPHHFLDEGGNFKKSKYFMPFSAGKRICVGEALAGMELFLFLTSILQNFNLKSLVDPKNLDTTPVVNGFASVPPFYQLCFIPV
Outline: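 CYP2C9 activity was measured with a P450-Glo proluciferin substrate. Enzyme–substrate mix was held with compound for 10 min at room temperature, then NADPH regeneration solution was added for 1 h at 37C. Luciferin product was read as luminescence.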

[5] = target: Voltage-gated inwardly rectifying potassium channel KCNH2 (Homo sapiens) (UniProt Q12809); experiment: Human Ether-a-go-go-Related Gene (hERG) channel small molecule antagonists: fluorescence cell-based qHTS assay (AID 1671200); also: potency is read from the fitted curve at half-maximal effect; nearly all actives have a fitted effect of over 50% in size
UniProt Q12809, sequence (Q12809 whole entry, looked up): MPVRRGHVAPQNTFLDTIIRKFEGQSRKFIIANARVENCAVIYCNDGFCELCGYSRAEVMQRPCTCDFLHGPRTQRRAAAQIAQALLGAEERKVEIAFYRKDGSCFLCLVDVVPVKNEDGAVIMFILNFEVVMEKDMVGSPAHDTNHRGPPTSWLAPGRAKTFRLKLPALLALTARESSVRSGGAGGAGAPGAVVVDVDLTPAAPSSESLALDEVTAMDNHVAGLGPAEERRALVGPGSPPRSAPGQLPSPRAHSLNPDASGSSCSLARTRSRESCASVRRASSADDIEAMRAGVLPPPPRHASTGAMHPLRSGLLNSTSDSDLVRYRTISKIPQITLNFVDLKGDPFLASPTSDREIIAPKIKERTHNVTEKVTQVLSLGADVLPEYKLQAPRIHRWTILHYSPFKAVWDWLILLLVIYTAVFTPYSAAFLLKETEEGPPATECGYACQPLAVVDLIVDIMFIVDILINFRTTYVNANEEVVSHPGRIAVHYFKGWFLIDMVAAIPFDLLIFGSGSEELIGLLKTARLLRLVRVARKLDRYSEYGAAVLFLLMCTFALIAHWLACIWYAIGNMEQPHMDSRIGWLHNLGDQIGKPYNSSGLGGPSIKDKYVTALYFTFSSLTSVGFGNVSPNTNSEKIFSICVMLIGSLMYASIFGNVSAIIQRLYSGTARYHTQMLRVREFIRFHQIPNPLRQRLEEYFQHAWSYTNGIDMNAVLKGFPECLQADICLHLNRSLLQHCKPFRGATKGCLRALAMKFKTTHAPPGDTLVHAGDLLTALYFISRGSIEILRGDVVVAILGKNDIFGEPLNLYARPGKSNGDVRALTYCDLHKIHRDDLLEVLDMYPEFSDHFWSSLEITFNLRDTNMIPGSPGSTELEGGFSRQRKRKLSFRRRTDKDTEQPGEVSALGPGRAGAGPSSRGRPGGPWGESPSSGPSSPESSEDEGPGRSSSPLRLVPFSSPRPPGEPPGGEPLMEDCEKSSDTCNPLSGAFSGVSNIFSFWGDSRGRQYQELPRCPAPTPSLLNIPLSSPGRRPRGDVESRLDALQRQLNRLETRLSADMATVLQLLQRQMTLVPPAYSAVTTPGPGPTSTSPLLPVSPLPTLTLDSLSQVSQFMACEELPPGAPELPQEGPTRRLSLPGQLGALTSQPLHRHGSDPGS
Outline: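 In this thallium-flux screen, overnight-cultured U2OS cells bearing the channel are dye-loaded in darkness for an hour, rested 10 min at room temperature, and then monitored kinetically at 480/540 nm for two minutes post-stimulus.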

[6] = target: Cytochrome P450 2D6 (Homo sapiens) (UniProt P10635); experiment: Cytochrome P450 Family 2 Subfamily D Member 6 (CYP2D6) small molecule antagonists: luciferase reporter qHTS assay (AID 1671196); also: nearly all actives have a fitted effect of over 50% in size; also: potency is read from the fitted curve at half-maximal effect
UniProt P10635, sequence (P10635 whole entry, looked up): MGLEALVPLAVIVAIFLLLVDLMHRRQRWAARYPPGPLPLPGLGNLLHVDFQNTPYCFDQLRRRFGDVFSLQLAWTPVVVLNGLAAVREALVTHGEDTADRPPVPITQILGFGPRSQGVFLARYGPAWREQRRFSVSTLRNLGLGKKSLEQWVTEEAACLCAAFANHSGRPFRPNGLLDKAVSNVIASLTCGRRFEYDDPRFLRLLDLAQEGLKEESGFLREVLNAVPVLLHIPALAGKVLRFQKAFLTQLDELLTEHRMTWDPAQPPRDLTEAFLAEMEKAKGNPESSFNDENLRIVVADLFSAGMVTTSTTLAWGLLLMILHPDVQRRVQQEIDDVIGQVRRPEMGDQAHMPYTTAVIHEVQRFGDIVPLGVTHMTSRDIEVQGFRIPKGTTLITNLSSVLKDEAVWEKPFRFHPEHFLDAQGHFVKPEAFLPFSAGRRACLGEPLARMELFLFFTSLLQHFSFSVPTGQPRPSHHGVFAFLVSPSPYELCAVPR
Outline: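 Test chemicals meet CYP2D6 plus proluciferin substrate (10 min, RT); NADPH regenerating solution then drives turnover for 1 h. Detection reagent halts the reaction; luminescence measured after 20 min.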

[7] = Caspase-3/7 induction in CHO-K1 cells by small molecules, qHTS cell viability counter screen (AID 1346979); also: nearly all actives have a fitted effect of over 35% in size
Outline: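 Following a 5hr settling period, CHO-K1 cells at 1,500 per well received DMSO-dissolved compounds. Cell viability was quantified 16hr later by CellTiter-Fluor fluorescence, measured after 1hr with reagent at 37C.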

[8] = target: Cytochrome P450 2C19 (Homo sapiens) (UniProt P33261); experiment: Cytochrome P450 Family 2 Subfamily C Member 19 (CYP2C19) small molecule antagonists: luciferase reporter qHTS assay (AID 1671197); also: potency is read from the fitted curve at half-maximal effect; nearly all actives have a fitted effect of over 65% in size
UniProt P33261, sequence (P33261 whole entry, looked up): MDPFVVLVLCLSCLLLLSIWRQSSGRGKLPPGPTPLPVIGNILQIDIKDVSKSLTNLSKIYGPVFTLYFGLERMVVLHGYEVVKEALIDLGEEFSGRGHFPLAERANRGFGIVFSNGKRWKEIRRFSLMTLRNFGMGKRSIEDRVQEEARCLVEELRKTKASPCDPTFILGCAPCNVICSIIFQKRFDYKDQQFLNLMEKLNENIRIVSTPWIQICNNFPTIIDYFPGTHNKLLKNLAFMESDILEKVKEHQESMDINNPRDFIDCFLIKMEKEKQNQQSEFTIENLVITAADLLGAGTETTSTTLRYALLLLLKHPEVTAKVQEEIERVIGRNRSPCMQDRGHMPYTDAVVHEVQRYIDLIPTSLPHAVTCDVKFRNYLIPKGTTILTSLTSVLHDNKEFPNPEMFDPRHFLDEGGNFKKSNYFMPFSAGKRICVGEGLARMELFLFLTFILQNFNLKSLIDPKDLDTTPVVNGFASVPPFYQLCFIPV
Outline: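 P450-Glo CYP2C19 screening system; proluciferin substrate; DMSO compound stocks; 10 min RT preincubation; NADPH regeneration, 1 h at 37C; luciferin detection reagent, 20 min RT; luminescence as RLU.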

[9] = target: Nuclear receptor subfamily 1 group I member 2 (Homo sapiens) (UniProt O75469); experiment: Human pregnane X receptor (PXR) small molecule agonists, qHTS assay (AID 1346982); also: potency is read from the fitted curve at half-maximal effect; nearly all actives have a fitted effect of over 35% in size
Outline: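 Reporter HepG2 cells expressing PXR-Luc are cultured in charcoal-stripped FBS (5%), treated with compounds for 24 hr at 37 C, and assayed by ONE-Glo luminescence after 30 min at room temperature.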

[10] = target: Cytochrome P450 3A4 (Homo sapiens) (UniProt P08684); experiment: Cytochrome P450 Family 3 Subfamily A Member 4 (CYP3A4) small molecule antagonists: luciferase reporter qHTS assay (AID 1671201)
UniProt P08684, sequence (P08684 whole entry, looked up): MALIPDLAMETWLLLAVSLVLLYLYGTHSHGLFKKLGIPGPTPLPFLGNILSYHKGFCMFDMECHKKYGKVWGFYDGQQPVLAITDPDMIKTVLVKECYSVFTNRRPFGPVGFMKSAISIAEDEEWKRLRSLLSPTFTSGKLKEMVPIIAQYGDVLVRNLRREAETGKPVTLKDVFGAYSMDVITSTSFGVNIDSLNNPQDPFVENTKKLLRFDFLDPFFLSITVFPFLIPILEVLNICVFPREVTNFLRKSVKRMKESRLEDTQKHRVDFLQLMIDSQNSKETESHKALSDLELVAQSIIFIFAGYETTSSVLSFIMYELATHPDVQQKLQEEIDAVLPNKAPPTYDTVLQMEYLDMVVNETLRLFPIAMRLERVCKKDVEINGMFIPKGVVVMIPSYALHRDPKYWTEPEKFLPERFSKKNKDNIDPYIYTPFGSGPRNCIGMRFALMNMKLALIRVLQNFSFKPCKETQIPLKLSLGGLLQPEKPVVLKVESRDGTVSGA
Outline: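 CYP3A4 activity was followed with a P450-Glo proluciferin substrate. Test compounds in DMSO were preincubated 10 min; NADPH regeneration then ran 1 h, and light output was read 20 min after detection reagent.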

[11] = target: Nuclear receptor subfamily 1 group I member 2 (Homo sapiens) (UniProt O75469); experiment: Human pregnane X receptor (PXR) activation by small molecules, qHTS assay (AID 1346985); also: potency is read from the fitted curve at half-maximal effect; nearly all actives have a fitted effect of over 40% in size
Outline: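 DPX-2 cells (HepG2 co-transfected with a PXR response element and a CYP3A4-promoter luciferase construct) were seeded at 2,000 per well, rested 5 hr at 37C, then exposed to DMSO-dissolved compounds for 24 hr. Activation was read as luciferase luminescence.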
Tags tell the direction and shape of the fitted curve.

In the case of `COc1cc2c(N3CCN(C(=O)Nc4ccc(OC(C)C)cc4)CC3)ncnc2cc1OCCCN1CCCCC1`, the Potency [1] is reported as active: 23.7 µM, the Potency [2] is reported as inconclusive: 23.7 µM [cytotoxic, partial curve] and the Potency [3] is reported as “inactive”.
For `Cc1ccc(N=Nc2c(O)ccc3ccccc23)c(C)c1`, the Potency [1] was inconclusive: 5.96 µM [cytotoxic, full curve], the Potency [2] was active: 8.41 µM and the Potency [4] was inconclusive: 15.5 µM [inhibitor, partial curve]. The Potency [5] was inconclusive: 23.9 µM [inhibitor, partial curve, poor fit].
In the case of `CCCCOC(=O)CC#N`, the Potency [1] is reported as “inactive”, the Potency [2] is reported as “inactive” and the Potency [6] is reported as active: 5.27 µM.
In the case of `CC(C)=CCCC(C)CCOC=O` (stereo unspecified), the Potency [1] is reported as “inactive”, the Potency [7] is reported as “inactive” and the Potency [6] is reported as “inactive”. For the same compound, the Potency [8] was inconclusive: 89.4 µM [inhibitor, single point] and the Potency [3] was inconclusive: 63.3 µM [inhibitor, partial curve].
In the case of `O=C(c1ccc(O)cc1)c1ccc(O)c(O)c1O`, the Potency [1] is reported as inconclusive: 68.9 µM [cytotoxic, single point], the Potency [9] is reported as active: 13.7 µM and the Potency [3] is reported as inconclusive: 71.3 µM [inhibitor, partial curve]. The Potency [10] was inconclusive: 45 µM [inhibitor, partial curve].
For `CC(=O)Nc1ccc(N=Nc2cc(C)ccc2O)cc1`, the Potency [1] was inconclusive: 43.3 µM [cytotoxic, partial curve], the Potency [2] was active: 61.1 µM and the Potency [10] was inconclusive: 39.9 µM [inhibitor, partial curve].
In the case of `OC(C#CCN1CCCC1)(c1ccccc1)c1ccccc1`, the Potency [1] is reported as inconclusive: 29.8 µM [cytotoxic, partial curve], the Potency [9] is reported as active: 23.7 µM and the Potency [11] is reported as inconclusive: 31.6 µM [activator, single point]. The Potency [5] was inconclusive: 16.9 µM [inhibitor, partial curve].
